Test results reported in PubChem BioAssay AID504832 (National Center for Advancing Translational Sciences (NCATS), 2011).
In all, about 310,000 compounds went through this assay and about 18,000 (5.8%) were called active. Inconclusive means that the source gave no clear call. Such entries were picked first, then a sample of the others. Calls come from the whole dose curve; as a rule, active = well fitted inhibition curve with a large enough effect; inconclusive = small, poorly fitted or top-dose-only effect, or another doubt; inactive = no such curve, though single readings can be large or run the other way. No potency is given beside an inconclusive call; the fits are too rough.

experiment: Primary qHTS for delayed death inhibitors of the malarial parasite plastid, 48 hour incubation; details: P. falciparum luciferase growth in erythrocytes; series mostly up to 28.7 µM; activity change, negative = inhibition: at the top concentration
Procedure, shortened: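 Luminescence readout; reporter = integrated firefly luciferase in P. falciparum. RBC culture at 2% hematocrit, 0.1% parasitemia final, 37 C/5% CO2; decreased signal taken as growth inhibition.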
% is set by controls: 0 for no effect and ±100 for the full control effect; potency is the fitted concentration of half-maximal effect; tags give direction and shape of the fitted curve.

Compound | activity change, negative = inhibition | Potency
Cc1ccc(CN(C)C(=O)c2ccc(S(=O)(=O)N(C)c3ccccc3)cc2)o1 | inactive: -3.47% | –
CCCCCCOc1ccc(N2C(=O)CC(N(CCc3ccc(S(N)(=O)=O)cc3)C(C)=O)C2=O)cc1 (centres undefined) | – | inconclusive [inhibitor, single point]
O=C(/C=C/c1ccccc1)NCCSCc1ccccc1Cl | – | inconclusive [inhibitor, single point]
CS(=O)(=O)N1CCCC(C(=O)NCCN2CCC(Cc3ccccc3)CC2)C1 (centres undefined) | – | inconclusive [inhibitor, single point]
CN1OC(COC(=O)c2ccc(Cl)cc2Cl)CC1c1ccccc1 (centres undefined) | inactive: 43.4% | –
CC(C)(C)c1ccc(CN2C3=NCCCN3c3ccccc32)cc1 | – | active: 3.7 µM
COc1ccc(-c2cn[nH]c2-c2ccc(OCc3ccc(F)cc3)cc2O)cc1OC | – | active: 10.4 µM
O=C(N=C1N=C2C=CC(Br)=CN2Cc2ccccc21)c1ccc([N+](=O)[O-])cc1[N+](=O)[O-] | – | inconclusive [inhibitor, single point]
Cc1ccc(CC(=O)NNC(=O)c2ccncc2)cc1C | – | inconclusive [inhibitor, single point]
CC(=O)C1=C(C)NC(C)=C(C(C)=O)C1c1cn(-c2ccccc2)nc1-c1cccs1 | – | active: 14.7 µM
C=CCn1c(C)nnc1SCC(=O)c1c(N)n(C2CC2)c(=O)[nH]c1=O | – | inconclusive [inhibitor, single point]
COc1ccc(-c2c[n+](CC(=O)c3ccccc3)c3n2CCCCC3)cc1 | – | inconclusive [inhibitor, full curve]
Cc1cc(=O)oc2cc(OCC(=O)N3CCCc4ccccc43)ccc12 | – | inconclusive [inhibitor, partial curve, poor fit]
COc1ccc(CNC(=O)C(C)OC(=O)CCN2C(=O)C3CC=CCC3C2=O)cc1 (centres undefined) | – | inconclusive [inhibitor, partial curve, poor fit]
Nc1nc(CN2CCN(Cc3ccccc3)CC2)nc(N2CCCc3ccccc32)n1 | – | inconclusive [inhibitor, partial curve]
O=C(CSc1ccc(Cl)cc1)c1ccco1 | inactive: 17.4% | –
O=C(CSc1ncnc2scc(-c3ccccc3)c12)NCc1ccc2c(c1)OCO2 | – | inconclusive [inhibitor, partial curve]
CC(C)(C)c1cc(C(=O)N2CCc3ccccc32)ccn1 | – | inconclusive [inhibitor, single point]
CCCN(CCC)Cc1c(C(=O)N/N=C/c2c[nH]c3ccccc23)nnn1-c1nonc1N | inactive: 4.73% | –
CCOC(=O)c1c(NC(NC(=O)C(C)C)C(Cl)(Cl)Cl)sc2c1CCC2 (centres undefined) | – | inconclusive [inhibitor, single point]
CC(O)CNC(=O)C1CCN(Cc2ccc(OCc3ccccc3)cc2)CC1 (centres undefined) | inactive: 9% | –
Cc1c(C(=O)NCCSCc2cccc(C(F)(F)F)c2)cnn1-c1ccc(Cl)cc1 | inactive: -14.8% | –

Compound | activity change, negative = inhibition | Potency
CN(CC1CCCN(CCc2ccc(Cl)cc2)C1)C(=O)C(=O)c1ccco1 (centres undefined) | inactive: -27% | –
CC(C)c1ccc(N=c2c([N+](=O)[O-])nn(-c3ccc4c(c3)OCCO4)n2O)cc1 | – | active: 10.4 µM
O=C(CCc1nnc(Cc2ccc3c(c2)OCO3)o1)NC(c1ccccn1)C(F)(F)F (centres undefined) | – | inconclusive [inhibitor, partial curve, poor fit]
COc1cc(C(=O)Nc2cc(C(F)(F)F)ccc2Cl)cc(OC)c1OC | – | inconclusive [inhibitor, partial curve, poor fit]
O=C(NC1CC2CCC(C1)N2Cc1ccccc1)c1ccccc1Br (centres undefined) | inactive: 14% | –
CCOc1ccccc1NC(=O)C1(S(=O)(=O)c2ccc(Cl)cc2)CC1 | – | inconclusive [inhibitor, single point]
COC(=O)c1cc(Cl)c(NC(=O)/C=C/c2ccc(Cl)cc2Cl)cc1OC | inactive: 35.8% | –
O=C(Nc1nnc(C2=COCCO2)o1)c1ccc(F)cc1 | – | inconclusive [inhibitor, single point]
COc1cc(OC)c2c(C)cc(=O)oc2c1C(CCN1CCOCC1)c1ccc2c(c1)OCO2 (centres undefined) | – | inconclusive [inhibitor, single point]
O=C(N/N=C/c1ccc(OC(=O)c2ccccc2)cc1)c1cccc(O)c1 | – | inconclusive [inhibitor, single point]
Cc1ccc(NS(=O)(=O)c2ccc(-c3coc(C)n3)cc2)c(Br)c1 | inactive: 21.8% | –
CSCCC(NC(=O)COc1ccccc1)C(=O)N(C)Cc1ccc(F)cc1 (centres undefined) | – | inconclusive [inhibitor, single point]
CCOc1cc(OCC)cc(C(=O)Nc2cccnc2)c1 | – | inconclusive [inhibitor, partial curve]
Cc1ccccc1NC(=O)CN1C(=O)CSc2ccc(S(=O)(=O)N3CCCCC3)cc21 | – | inconclusive [inhibitor, partial curve]
O=C(O)CC/C(=C\c1ccc(Cl)c([N+](=O)[O-])c1)c1nc2ccccc2s1 | inactive: 21.2% | –
CC1CCN(C(=O)CSc2nnc(CN3CCOCC3)n2-c2ccccc2)CC1 | inactive: 1.48% | –
CNCC(=O)N1CCN(c2ncc(C(F)(F)F)cc2Cl)CC1 | – | inconclusive [inhibitor, partial curve, poor fit]
C=CCn1c(=S)[nH]c2cc(C(=O)Nc3ccc(F)cc3)ccc2c1=O | inactive: -11.6% | –
CCN1CCN(Cc2ccc(NC(=O)c3ccc(C)c(NC(=O)N4CCNC4=O)c3)cc2C(F)(F)F)CC1 | – | inconclusive [inhibitor, single point]
CC(C)(C)c1ccc(NC(=O)COc2ccc(-n3ccnc3)cc2)cc1 | – | inconclusive [inhibitor, single point]
CCn1c(SCc2nc3scc(-c4ccccc4)c3c(=O)[nH]2)nnc1-c1ccc(Cl)cc1 | inactive: -20.4% | –
CC(=O)c1ccc(-c2cccc(-c3nc4ccccn4c3NC3CCCCC3)c2)cc1 | – | active: 11.7 µM
